The record followed here is PubChem BioAssay AID1240 (Sanford-Burnham Center for Chemical Genomics, 2008).

The whole screen tested about 50,000 compounds, of which about 800 (1.6%) showed an effect of 50% or more. This is one part of the list.

The assay deals with Bcl-2-like protein 10 (Homo sapiens) (UniProt Q9HD36). The assay is described as follows: Phenotype converters, Bcl-B/TR3 peptide binding displacement, primary biochemical FP (AID 1240).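 Also: 0% = Bcl-B with tracer peptide and DMSO and 100% = tracer peptide lacking Bcl-B.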 The note with it: GST-Bcl-B / FITC-TR3 peptide fluorescence polarization; stronger effect = higher value; compound at 3.75 mg/L. A general note: Fluorescence polarisation rises when a labelled molecule tumbles more slowly, as on binding a larger partner.
Chain of UniProt Q9HD36 (Q9HD36 whole entry, looked up): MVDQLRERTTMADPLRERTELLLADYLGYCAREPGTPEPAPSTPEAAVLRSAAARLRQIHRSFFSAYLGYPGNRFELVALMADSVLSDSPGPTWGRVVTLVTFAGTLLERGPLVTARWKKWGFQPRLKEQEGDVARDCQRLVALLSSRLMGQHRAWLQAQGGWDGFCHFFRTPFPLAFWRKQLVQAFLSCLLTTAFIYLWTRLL
As for `Cc1ccc(C(=O)NC(Cc2c[nH]c3ccccc23)C(=O)O)o1` (stereo unspecified), the displacement was found to be 13.6%. The figure for `CCOC(=O)COc1ccc(/C=C2/C(=O)NN(c3ccc(F)cc3)C2=O)cc1OC` is 0.7%; for `Cc1ccnc(NC(=O)Cc2ccc(Cl)cc2)c1` it is 7.6%; for `COc1ccc([N+](=O)[O-])cc1N(CC(O)CN1CCCCC1)S(=O)(=O)c1ccc(C)cc1` (stereo unspecified) it is -8.5%. As to `O=C(c1ccccc1F)N1CCN(c2ccc(C(F)(F)F)cc2[N+](=O)[O-])CC1`, the displacement stood at 8.9%. The figure for `O=S(=O)(c1ccc2c(c1)Cc1cc(S(=O)(=O)n3cnc4ccccc43)ccc1-2)n1cnc2ccccc21` is 15.9%; for `Clc1cccc(/C=N/N2CCN(Cc3cccc4ccccc34)CC2)c1Cl` it is -10.9%; for `CC1(C)CC(=O)C=C(Nc2nc(-c3ccccc3)cs2)C1` it is -1.5%. The figure for `COCCCNC(=O)CN(c1ccc(F)cc1)S(=O)(=O)c1ccccc1` is 0.6%. Under `O=S(=O)(Nc1cccc(C(F)(F)F)c1)c1ccc(F)cc1` stands -3.3%; under `CC(Oc1ccc(Cl)cc1Cl)C(=O)Nc1nc(-c2ccc(F)cc2)cs1` (stereo unspecified), 4.1%; under `Cc1cccc(C(=O)N2N=C(c3ccc(Cl)cc3)CC2(O)C(F)(F)F)c1` (stereo unspecified), -5.2%. For the molecule `Cc1cc([N+](=O)[O-])nn1C(=O)c1nn(C)cc1Br`, the displacement worked out at 0.4%.

`O=C(/C=C/c1ccccc1)C1=C(O)C(=O)N(c2ccccc2)C1c1cccc([N+](=O)[O-])c1` (stereo unspecified): the displacement is 1.9%. For the molecule `Fc1ccccc1OCCCCn1ccnc1`, the displacement was 11.1%.

As for `O=C(CCN1C(=O)c2ccccc2C1=O)Nc1cccnc1`, the displacement is -3.5%. The figure for `CCCC(=N)C1=C(O)CC(C)(C)CC1=O` is 6.6%.

As for `NS(=O)(=O)c1ccc(NS(=O)(=O)c2ccc(Br)cc2)cc1`, the displacement was 12.9%.

For the molecule `CN1CCN(/N=C/c2cccs2)CC1`, the displacement is -0.3%. Under `CN1CCN(C(=O)CCN2C(=O)/C(=C/c3cccs3)SC2=S)CC1` stands 0.2%. Take `COc1ccc(CN(CCC(c2ccccc2)C2CCOC(C)(C)C2)C(C)=O)cc1` (stereo unspecified): the displacement is -3.4%.

For the molecule `COc1ccc(C2CC(c3ccc([N+](=O)[O-])cc3)=NN2C(=O)c2ccccc2)cc1OC` (stereo unspecified), the displacement was 13.6%. Under `COCCCNC(=O)CN(c1cc(C)cc(C)c1)S(=O)(=O)c1ccccc1` stands -9.8%.

Consider `Cc1ccccc1-c1n[nH]c(=S)n1C`, for which the displacement is -8.4%. `Cc1ccc(-c2nc3sc4c(c3c(=O)[nH]2)CCCC4)cc1[N+](=O)[O-]`: the displacement is -32.4%.

As for `Cc1ccc(CC2CC2(Cl)Cl)c([N+](=O)[O-])c1` (stereo unspecified), the displacement worked out at 9.6%. Under `O=C(NNC(=O)C12CC3CC(CC(C3)C1)C2)c1ccco1` stands 5.7%; under `Cc1ccc(S(=O)(=O)N2CCN(S(C)(=O)=O)C2C(C)C)cc1` (stereo unspecified), 0.4%. The figure for `CN(C)CCCNC(=O)c1ccc([N+](=O)[O-])cc1` is 0%; for `Fc1ccccc1COc1ccccc1/C=N/n1cnnc1` it is 1.6%. The figure for `Cc1nnc(Nc2cccc(O)c2)c2ccccc12` is -2.3%; for `CC(=O)NCCN=Cc1cc2n(c1O)-c1ccccc1C2=O` it is 167%. Take `COc1ccccc1NCC(=O)N/N=C/c1cc(Br)cs1`: the displacement was -2.5%.

Consider `Cc1nc2c(c3c1[nH]c1ccccc13)/C(=N\O)CC(C)(C)C2`, for which the displacement is -9.7%. For `COc1ccc(CCNC(=O)CC(=O)N/N=C/c2ccco2)cc1OC`, the displacement was 9.3%.

On to `Cn1/c(=N/N=C/c2ccc(O)cc2O)sc2ccccc21`, for which the displacement amounted to 10.3%. For `O=C(Nc1cccc(-c2nnc(-c3ccccc3)o2)c1)c1cccs1`, the displacement turned out to be 2%. Under `COc1ccc(-c2nnc(Sc3nc4ccc([N+](=O)[O-])cc4s3)n2-c2ccccc2)cc1` stands 16.8%; under `CCCOc1cccc(C(=O)Nc2ccc(C(=O)Nc3ccccc3C(=O)O)cc2)c1`, -10.9%; under `O=C(COc1ccc(/C=N/NS(=O)(=O)c2ccccc2)cc1)Nc1ccccc1`, -1.8%. The figure for `Cc1ccc(C(=O)Nc2ccccc2C(=O)NC(Cc2ccccc2)C(=O)O)cc1` (stereo unspecified) is 8.4%.

Regarding `CCOc1ccc(C(=O)N2CCOCC2)cc1`, the displacement was determined as 3%. Under `Cc1ccc(OCCNc2cc(N3CCCC3)ccc2[N+](=O)[O-])cc1C` stands 25.3%; under `Cc1nn(C(=O)CN2C(=O)c3ccccc3C2=O)c(C)c1Br`, 5.6%; under `Cc1ccc2nc(SCc3ccc([N+](=O)[O-])cc3)[nH]c2c1`, -11.6%. Regarding `O=S1(=O)CCC(NC(=S)N/N=C/c2cccc(Oc3ccccc3)c2)C1` (stereo unspecified), the displacement came out at 0%.

`NNC(=O)c1cc(-c2ccc3ccccc3c2)n[nH]1`: the displacement is -23.1%. On to `CCOC(=O)C1=C(O)/C(=C/c2ccc(CNC(=O)C(=O)Nc3ccc(C)cc3)o2)N=C1C`, for which the displacement was found to be 3.3%. The figure for `CCOP(=O)(O)COc1ccc([N+](=O)[O-])cc1` is -4.8%; for `CC(C)OC(=O)COc1cc2oc(=O)c3c(c2cc1Cl)CCCC3` it is -3.2%; for `CCOc1ccccc1NC(=O)c1c(NC(=O)Cc2ccccc2)sc2c1CCC2` it is -5.8%.

With `CC(=O)c1cnc2cc(-c3cccc(Br)c3)nn2c1C`, the displacement was -10%. Under `COc1ccc(Cl)cc1NC(=O)CCCOc1ccc(Cl)cc1Cl` stands -9.3%. Under `CCOC(=O)C1=C(C)N(C)C(=O)NC1c1ccc(O)cc1` (stereo unspecified) stands -5.1%. Turning to `Oc1ccccc1C=NC1=NN(c2cccc(C(F)(F)F)c2)CC1`, the displacement stood at 3.8%.

Regarding `COc1ccc(-c2nnc(NC(=O)c3ccccc3OC)s2)cc1`, the displacement came to 6.6%. Under `Nc1ccc2nn(-c3ccc([N+](=O)[O-])cc3)nc2c1` stands -8.4%. Under `COc1ccc(CNC(=O)COc2ccccc2)cc1` stands -2.3%; under `Cc1cc(C)c(C)c(OCCOCCN2CCN(C)CC2)c1`, -9.4%. For the molecule `COc1ccc(NC(=O)/C(C#N)=C/c2cn(CC(=O)Nc3ccccc3)c3ccccc23)cc1`, the displacement was -21.4%. The figure for `Cc1cccc(/C(N)=N/OC(=O)c2cccc(I)c2)c1` is 6.4%; for `O=C(CCN1C(=O)/C(=C\c2ccc(Cl)cc2)SC1=S)Nc1cccc(C(=O)O)c1` it is -6.4%; for `NC1=NC(=O)/C(=C\c2ccccc2Cl)S1` it is 13.2%. The figure for `CCOc1ccc(C(=O)Nc2ccc(NC(=O)c3ccco3)c(OC)c2)cc1` is -40%. Under `Cc1ccc(C(=O)Oc2ccc(NS(=O)(=O)c3cc(C)ccc3C)cc2)cc1` stands 9.5%.

On to `NC(=O)C(c1ccccc1)c1ccccn1` (stereo unspecified), for which the displacement was 15.8%. Under `CCC1=NC(C(F)(F)F)(C(F)(F)F)N=C(N2CCCCC2)O1` stands 12.7%; under `COc1ccc(Cl)cc1N=Cc1c(O)[nH]c(=O)[nH]c1=O`, 10.3%; under `CCOc1ccc(C2C(C(=O)OC(C)C)C(=O)CC(C)(O)C2C(=O)OC(C)C)cc1` (stereo unspecified), -3.6%. The figure for `N#C/C(=C/c1ccc(F)cc1)C(=O)Nc1cccc(Br)c1` is -19.5%; for `COc1cc(NC(=O)c2cnccn2)c(OC)cc1Cl` it is 28.7%.
